{"source": "patent US10669242B2", "about": "(priority 2016, dated 2020)", "system": "C. difficile strain 630", "parameters": "species or system Golden Syrian hamsters", "conditions": "hamster, in vivo, po", "note": "Like-named read-outs stand apart in the source and are kept apart here.", "data": [{"smiles": "O=C(Nc1ccc(C(F)(F)F)cn1)c1ccc(CN2C(=O)c3ccc(Cl)cc3NC(=O)[C@H]2Cc2ccccn2)cc1Cl", "note": "[Example 5ae, (R)-2-Chloro-4-((8-chloro-2,5-dioxo-3-(pyridin-2-ylmethyl)-2,3-dihydro-1H-benzo[e][1,4]diazepin-4(5H)-yl)methyl)-N-(5-(trifluoromethyl)pyridin-2-yl)benzamide]", "values": [{"measurement": "Median Survival", "setting": "50 mg/kg", "result": 12.3, "unit": "days"}]}, {"smiles": "CN[C@H](CC(C)C)C(=O)N[C@H]1C(=O)N[C@@H](CC(N)=O)C(=O)N[C@H]2C(=O)N[C@H]3C(=O)N[C@H](C(=O)N[C@H](C(=O)O)c4cc(O)cc(O)c4-c4cc3ccc4O)[C@H](O)c3ccc(c(Cl)c3)Oc3cc2cc(c3O[C@@H]2O[C@H](CO)[C@@H](O)[C@H](O)[C@H]2O[C@H]2C[C@](C)(N)[C@H](O)[C@H](C)O2)Oc2ccc(cc2Cl)[C@H]1O", "note": "[vancomycin, reference compound]", "values": [{"measurement": "Median Survival", "setting": "5 mg/kg", "result": 12.0, "unit": "days"}]}]}
